# Test results from article PMC10668032.
# This is one part of the list. At the low end of the ranking the order means little.
# Target: SIX1-Q177R homeodomain (UniProt Q15475)
# Experiment: universal protein binding microarray
# Conditions: Universal all-10-mer PBM (8x60K, AMADID 030236), 300 nM GST-tagged protein, Alexa Fluor 488 anti-GST; buffer, salt, pH and temperature not stated; high values mean tight binding; most listed sequences are background and not binding sites; double strand, one strand shown
row,Sequence,binding signal [E-score]
1,CTCTCGTA,-0.178
2,GCAATGGA,-0.183
3,GAGCCTAC,-0.108
4,ATCTAGAC,0.0386
5,ATTGGCGA,-0.148
6,GGGATTTA,0.00874
7,CTCAAGCA,0.0114
8,CGGTGCGA,0.155
9,AAGTGCTG,-0.0592
10,ACAAAGAG,0.0486
11,AAAACCAA,-0.0582
12,GTTGCTAA,-0.107
13,GGGCGTTA,0.142
14,ATACACTG,0.392
15,GCTCAATA,-0.193
16,AGGTGTCC,0.464
17,AGGTTACA,0.182
18,GTCCTGTA,-0.234
19,CGTAACCA,-0.177
20,GTCCGGGA,-0.114
21,AAATTACG,-0.211
22,ACACCAAT,0.473
23,AAACATAT,-0.264
24,ACTCGGCT,-0.0747
25,ACAGCAGT,0.0295

row,Sequence,binding signal [E-score]
1,AAGTAGCA,-0.25
2,GCAGCATA,-0.0395
3,ATGCACCA,0.165
4,GGGTATAC,0.262
5,GGCGCGCA,-0.0554
6,ATGGCTGA,-0.113
7,ACCCTATA,0.0941
8,CCACTACA,0.298
9,CTTTGACC,0.0454
10,TATGCACA,0.0646
11,CGCGCCCA,0.0147
12,GAGAGTAC,0.0453
13,CCACCTCG,-0.0443
14,GCCGCTAA,-0.159
15,CTCAGAGC,-0.156
16,ATCCACAG,0.185
17,ACTTAAGG,-0.027
18,AGAATACA,0.136
19,CCACTCTC,0.0949
20,GCGGTTAA,-0.0416
21,AATCGTGG,-0.0906
22,ACTTGCTG,-0.113
23,CTACTCTC,0.00492
24,CTGCGTCC,-0.231
25,AATTGCCT,-0.133

row,Sequence,binding signal [E-score]
1,AATTGGGC,-0.101
2,ACAAAGTG,0.102
3,GACTAGGA,-0.173
4,CTCCCAGA,0.00241
5,CATCTCCG,-0.0973
6,AACCTATA,0.0658
7,ACCTGTAG,-0.066
8,CGTGCTAG,0.0709
9,CCCGTATC,0.114
10,AAAGGTCC,-0.0188
11,CATGAAAC,0.0479
12,AAATCGTC,-0.254
13,TCAGTCGA,-0.0683
14,ACGTACCT,0.00332
15,AGTTCCCG,-0.115
16,AAAAAAGG,-0.214
17,ATGCACTG,-0.218
18,GGCTTTTA,-0.146
19,ACTCTCTG,-0.036
20,AGTGCTGG,0.0382
21,AAAATTCT,-0.121
22,AGAAGCTG,-0.273
23,CTAAGAAA,-0.175
24,CGTTAAGA,-0.139
25,AGAGTTGA,-0.0399

row,Sequence,binding signal [E-score]
1,AAGGGTAA,0.136
2,AAAACCTT,-0.185
3,GCCCTTTA,-0.0576
4,GACCAGCC,-0.302
5,CTACGATA,0.0119
6,CTACGGTC,-0.198
7,CGGTCAGA,-0.288
8,GGTCCAGA,-0.204
9,AGCGTAGC,-0.192
10,ACGGGACT,-0.106
11,AGTAAAAC,0.0273
12,ATATAGAG,-0.133
13,ACGAGATA,-0.0837
14,CCACGAGA,-0.0445
15,GAGGCAGC,-0.211
16,AATTACAT,-0.26
17,GGACTCTA,0.0998
18,GGAAGGTA,0.169
19,CGGCGTTA,0.143
20,TCAATGCA,-0.215
21,GTAAAGTA,0.0252
22,CAGCGCGC,-0.109
23,CATACAGG,-0.0352
24,GCACCATA,0.174
25,CTGAAGCC,-0.209

row,Sequence,binding signal [E-score]
1,CAGGGGAA,-0.0155
2,GAGGTAAA,-0.117
3,ACGCCACT,0.159
4,GAAGCTGC,-0.192
5,ATTCGACC,-0.0517
6,CATCCTGA,-0.147
7,GTCCGTGA,0.00588
8,ACTTACCA,0.025
9,ACACAAAT,0.167
10,AGTTTGAC,-0.0847
11,CCAACTGC,-0.223
12,AGCCCGTG,0.122
13,CAAGCATG,-0.189
14,ACCACCTG,0.11
15,AGCAGCCA,-0.32
16,AGGTGGCA,-0.0817
17,CACTTTGC,0.0429
18,ACTTTAGG,-0.0441
19,CATAATCG,-0.0719
20,GACGTTGA,-0.0104
21,AATTGTCA,0.114
22,AAAATCTG,-0.0398
23,GACACTGC,0.433
24,CAAGGCCC,-0.115
25,ATTTCAGC,-0.197

row,Sequence,binding signal [E-score]
1,GCTTCTCA,-0.188
2,ATTTTCCG,-0.179
3,AAGTATCA,0.117
4,CAATGCGA,-0.0103
5,ATCATAAA,-0.105
6,AGAACGGC,-0.205
7,ATAATGAC,0.076
8,ACACGCGG,0.402
9,AATCGGGG,0.0944
10,CCTGCAAG,-0.0321
11,CCGACTTA,0.0346
12,CATAATTC,-0.14
13,GCAAGTAC,-0.17
14,CGGATAAG,0.132
15,ACTCGCTC,-0.121
16,AAAATACG,-0.0456
17,CGCGATGA,-0.235
18,CGCAAGAC,-0.0941
19,ATTAGAGA,-0.222
20,AAGATAAC,0.0106
21,AACTATCG,-0.00075
22,CAACTCTG,0.0185
23,GGAGGGTA,0.224
24,AACACGTT,0.272
25,CATATGAG,0.0636

row,Sequence,binding signal [E-score]
1,GCACCAAA,0.084
2,CTTGGCTA,-0.149
3,CGAGCACG,0.143
4,CCCGAAAC,-0.0264
5,CCTGTGTA,0.192
6,ACCCGATG,0.0993
7,AGGGATAC,0.165
8,AGATTTGG,-0.19
9,AAACGTAA,-0.113
10,TTCTGCAA,0.00631
11,AGCGACAG,-0.187
12,ATTCTGTA,-0.191
13,CCCCTAGC,0.177
14,GACTATGC,-0.0682
15,ACCGTTAA,0.0075
16,GTGAAAAC,-0.146
17,TCCAGGGA,-0.09
18,CGCCAGGA,-0.131
19,CACCAGAC,0.338
20,AAGACCGT,-0.191
21,CTACCTCA,0.0378
22,GATATAAC,0.117
23,CCTAAACG,-0.0409
24,CCAGAAGC,-0.12
25,GGTATTGA,0.13

row,Sequence,binding signal [E-score]
1,GGATAGCC,-0.175
2,AACAGGGA,-0.0219
3,ATGGTTTA,-0.0473
4,CGCTTTTC,-0.0906
5,CGCCTGCA,-0.0514
6,CCTTCCAA,0.0489
7,GAGCCTGA,-0.225
8,CAGGCTAC,0.0322
9,CGGGGCAG,0.0491
10,ACATTTCA,-0.185
11,CACCGTAA,0.147
12,GATCGACC,-0.0785
13,CGTCCGCA,0.0357
14,AGGTTGAT,-0.017
15,GACGAGTA,-0.0741
16,CACCGTCG,0.267
17,AGGCACGC,-0.178
18,ACCAGCAA,-0.0731
19,CTGCTAGC,-0.244
20,ATGGTTCG,-0.0202
21,GGACCCGA,-0.136
22,AATAGCAC,0.202
23,AGAGTTTG,-0.185
24,GACTGGCA,-0.197
25,TAGACCTA,-0.253

row,Sequence,binding signal [E-score]
1,AAGCCATG,-0.227
2,CACAGAAG,0.117
3,CATTGAAG,-0.0829
4,GACGGTAC,-0.00061
5,GGAGTACA,0.246
6,GCCCCAAC,-0.269
7,AGATTCAG,-0.031
8,CCGTCTGC,-0.0226
9,GATGGGGC,-0.171
10,ACGGTAGG,0.0701
11,GGAGGCCC,-0.167
12,CTAGAGAG,-0.179
13,CAGCACGA,-0.0715
14,AAGCATCG,-0.0803
15,GGGAAGAC,-0.111
16,CACGCCCG,0.237
17,CCTCTGAC,0.175
18,AGGTATGG,-0.0114
19,AATTCCAG,-0.248
20,AATGGCGC,-0.195
21,GCCATGAC,-0.0321
22,TATGCTAA,-0.126
23,ATGCGAAA,-0.112
24,ACGGTCCA,-0.132
25,AAGACGTG,0.166

row,Sequence,binding signal [E-score]
1,CAGTCACC,0.14
2,AAGGTTCA,-0.146
3,AAAGTCCT,-0.241
4,CGCATCAA,-0.0928
5,AATCTCCA,-0.0982
6,AAGCAGAA,-0.209
7,CGCTTCCC,-0.0547
8,ATATGCGC,-0.0469
9,AGGCAGCG,-0.0573
10,ACATACAA,-0.243
11,CCCTAATA,-0.0212
12,GATACCCA,0.362
13,GTGGTGCA,0.189
14,ACTCCACT,0.263
15,CCGATGAG,0.00878
16,GCGTTGTA,-0.0954
17,GAGCACCC,0.283
18,GGTGCCAA,0.187
19,AGACCTCA,-0.185
20,ACGGATCC,0.126
21,ACTTATCT,-0.123
22,AGTCCCAA,-0.196
23,GCGTGTAA,0.441
24,GCCACTAA,-0.195
25,GGTAACGA,0.142

row,Sequence,binding signal [E-score]
1,GTTGAGAA,-0.16
2,TATTCCAA,-0.0868
3,ATCGTCCG,-0.00533
4,CACACCTC,0.403
5,CTGGTTAC,0.00475
6,CGTTAGGC,-0.13
7,TAATGTCA,-0.167
8,GAACGTAC,-0.0228
9,CTTTTTTA,-0.226
10,ACCCGCTG,0.138
11,CCGTCGAC,0.0973
12,CATTATCA,0.000485
13,CCGTTGCG,-0.159
14,AGTTCTCG,-0.273
15,TAGCGTGA,-0.11
16,GGGTTACA,0.242
17,ATGTGCCC,0.0431
18,CAAGGCGA,-0.0976
19,CCTCTTAA,-0.0653
20,TTCACGAA,-0.105
21,ACCCCAAA,0.205
22,CCGGTACC,0.0162
23,CAAGTGTC,0.379
24,AGTAAACA,0.0557
25,TCACGTAA,-0.00818

row,Sequence,binding signal [E-score]
1,CCTTTTCA,-0.0263
2,AACAAGCG,-0.117
3,AAAATTGC,-0.136
4,CGTTTCAA,-0.134
5,ATCCAGTG,0.22
6,TACGTAAA,-0.24
7,AGATAAGG,-0.00347
8,CCACGTCG,0.0654
9,CAGATCTG,-0.189
10,ACCCGAAT,0.0523
11,CCCGGAGA,0.028
12,GCTATCTA,-0.142
13,TAAACAGA,-0.198
14,AGAGTCGA,0.0146
15,TATTCAAA,-0.238
16,AATATGGT,0.103
17,AGTATGTA,-0.116
18,ACCGGAAT,0.0575
19,CGACTCCA,0.275
20,ACCGGTGC,0.238
21,CCTCGGGC,-0.0544
22,TACGGTCA,-0.169
23,AGTCGTAC,-0.0423
24,ACTACGAT,0.0959
25,ATGAGAGC,-0.0859

row,Sequence,binding signal [E-score]
1,ATATGCAT,-0.197
2,AGAGGGGG,0.0956
3,GATCCCTA,0.24
4,ACCATCGG,0.00307
5,ACTGTGAC,-0.0408
6,ACGCCGTA,0.102
7,ACAAGACG,-0.0223
8,GGACAGCC,-0.111
9,GAAGAATA,-0.153
10,GACGCAGA,-0.211
11,AGCTTAAA,-0.219
12,ACAACACC,0.455
13,GGTTACAA,0.0449
14,GGTCGCTA,-0.113
15,GATGCTTA,-0.171
16,CAGTGGCC,-0.226
17,GACTAGAC,-0.105
18,CAGTGTGG,0.14
19,AGTCATCC,-0.118
20,CATACCAA,-0.0186
21,CCATGCCA,0.0163
22,ACAAGAGC,-0.144
23,CACTGTTA,0.255
24,GACCGCAA,-0.174
25,CCCTGTCG,-0.054

row,Sequence,binding signal [E-score]
1,CTATGTTA,-0.164
2,CACCAATA,0.276
3,CCACACTA,0.206
4,CCTAGCAG,-0.00109
5,ATAATCTA,-0.0691
6,CGGGCGCC,-0.183
7,GCGTACGA,-0.152
8,ACTATTGG,-0.129
9,CCTTATCA,-0.0608
10,CCAGCAAA,-0.137
11,TAACATAA,-0.175
12,TATGAACA,0.0259
13,AAGAGATG,-0.0559
14,GGCAAGCC,-0.216
15,CGCGGCTC,-0.0831
16,CCTGTTCG,-0.0401
17,CAGCATTA,-0.235
18,GTACAACA,0.2
19,CTATACTA,-0.0546
